Values marked as one replicate rest on one cluster of the flow cell; about a third of the high ones do not repeat.
What follows are sequences tested on ATP (assay: switch fluorescence ratio, 500 uM ATP over buffer (Cy3 cluster intensity, sum of 5 cycles each) (fold (ratio)); higher = stronger signal-on switching upon ATP binding; sequences stand for … in TCGTCGGCAGCGTCAGATGTGTATAAGAGACAGTTTTTTTTTTTTTTTTTTTTTTTTT…TC). Conditions: aptamer strand: ATP DNA aptamer (quencher-CACCTGGGGGAGTATTGCGGAGGAAGG + anchor), 100 nM annealed; ATP concentration: 500 uM; one replicate.
In short: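 The fluorescence ratio divides summed target-cycle Cy3 intensity by summed buffer-cycle Cy3 intensity for each cluster and is averaged per switch-domain sequence. Cy3-labelled switching-strand clusters on a modified Illumina MiSeq flow-cell were annealed to 100 nM quencher-labelled ATP aptamer, then imaged in selection buffer and again after 15 min with 500 uM ATP at 22 °C. Five such cycles were run, with NaOH stripping and re-annealing between them, and clusters outside 100-1000 RFU were excluded.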
For TCCTAAGTG, the switch fluorescence ratio was 1.04.
TCCTAGGCT showed a switch fluorescence ratio of 1.04.
Work on TCCTATATTT yielded a switch fluorescence ratio of 1.04.
For TCCTCGTTTT, the switch fluorescence ratio was 1.08.
In the case of TCCTCTACGT, the switch fluorescence ratio is reported as 1.19.
In the case of TCCTCTCGTA, the switch fluorescence ratio is reported as 1.99.
Work on TCCTCTGGCT yielded a switch fluorescence ratio of 1.74.
With TCCTCTTTCA the switch fluorescence ratio was 1.04.
TCCTGACGAG gave a switch fluorescence ratio of 1.06.
With TCCTGCACGG the switch fluorescence ratio was 1.04.
Sequence TCCTGCGGGA has a switch fluorescence ratio of 4.09.
Sequence TCCTGGAGTT has a switch fluorescence ratio of 0.966.
Sequence TCCTGGGAAA has a switch fluorescence ratio of 1.03.
Work on TCCTGTCCTT yielded a switch fluorescence ratio of 1.01.
In the case of TCCTTCCGC, the switch fluorescence ratio is reported as 4.7.
Sequence TCCTTCCGTG has a switch fluorescence ratio of 2.91.
TCCTTCGGGA showed a switch fluorescence ratio of 1.64.
In the case of TCCTTGACCC, the switch fluorescence ratio is reported as 1.
TCCTTGATAA showed a switch fluorescence ratio of 1.04.
TCCTTGGTGT gave a switch fluorescence ratio of 1.21.
In the case of TCCTTGTA, the switch fluorescence ratio is reported as 1.
TCCTTGTCCG showed a switch fluorescence ratio of 1.09.
With TCCTTGTGTG the switch fluorescence ratio was 1.
TCCTTGTGTT showed a switch fluorescence ratio of 1.04.
TCCTTTAAAG showed a switch fluorescence ratio of 1.04.
TCCTTTCTAA gave a switch fluorescence ratio of 0.996.
Work on TCCTTTTTAC yielded a switch fluorescence ratio of 1.19.
TCCTTTTTAT was tested, and the switch fluorescence ratio was 0.947.
Sequence TCCTTTTTGA has a switch fluorescence ratio of 0.997.
For TCGAAAACGG, the switch fluorescence ratio was 0.976.
With TCGAAATGGT the switch fluorescence ratio was 1.03.
Work on TCGAACGCCC yielded a switch fluorescence ratio of 2.7.
TCGAATATAC gave a switch fluorescence ratio of 2.95.
TCGACAGAAA gave a switch fluorescence ratio of 0.954.
In the case of TCGACCCCCG, the switch fluorescence ratio is reported as 1.09.
Work on TCGACTTTTA yielded a switch fluorescence ratio of 1.1.
In the case of TCGAGAGCCT, the switch fluorescence ratio is reported as 1.03.
In the case of TCGAGCCCTG, the switch fluorescence ratio is reported as 1.08.
For TCGAGCGTTT, the switch fluorescence ratio was 1.03.
TCGAGGAAGG gave a switch fluorescence ratio of 1.02.
In the case of TCGAGGCTCC, the switch fluorescence ratio is reported as 1.
For TCGAGGCTCT, the switch fluorescence ratio was 1.06.
In the case of TCGAGGGCGC, the switch fluorescence ratio is reported as 1.04.
TCGAGGTGA was tested, and the switch fluorescence ratio was 1.04.
In the case of TCGAGTAGTT, the switch fluorescence ratio is reported as 0.976.
TCGAGTATTT gave a switch fluorescence ratio of 1.
TCGAGTCAGG showed a switch fluorescence ratio of 1.02.
For TCGATAGGGC, the switch fluorescence ratio was 1.
TCGATCACCG showed a switch fluorescence ratio of 0.991.
TCGATTAGGT showed a switch fluorescence ratio of 0.996.
TCGATTCCGA was tested, and the switch fluorescence ratio was 1.
With TCGATTGGAA the switch fluorescence ratio was 1.02.
For TCGATTGGAT, the switch fluorescence ratio was 1.01.
TCGCAAGCAT gave a switch fluorescence ratio of 1.77.
Sequence TCGCAATGAG has a switch fluorescence ratio of 4.73.
Sequence TCGCAGACAG has a switch fluorescence ratio of 1.
TCGCAGATTC gave a switch fluorescence ratio of 2.91.
For TCGCAGGGC, the switch fluorescence ratio was 1.43.
TCGCAGTTTG was tested, and the switch fluorescence ratio was 1.01.
In the case of TCGCAGTTTT, the switch fluorescence ratio is reported as 1.06.
Work on TCGCCGATTG yielded a switch fluorescence ratio of 1.02.
Sequence TCGCCTCGGG has a switch fluorescence ratio of 0.952.
For TCGCGCGGCA, the switch fluorescence ratio was 1.01.
Work on TCGCGGGTGA yielded a switch fluorescence ratio of 1.
TCGCGGTGCT showed a switch fluorescence ratio of 1.66.
TCGCGTGC gave a switch fluorescence ratio of 1.22.
TCGCGTGGGT showed a switch fluorescence ratio of 1.01.
For TCGCTATTTT, the switch fluorescence ratio was 1.09.
TCGCTGAACG showed a switch fluorescence ratio of 1.02.
TCGGAAAGTC gave a switch fluorescence ratio of 0.978.
For TCGGAACGCC, the switch fluorescence ratio was 1.19.
For TCGGAGAGTT, the switch fluorescence ratio was 1.01.
TCGGAGGCTC was tested, and the switch fluorescence ratio was 1.02.
Work on TCGGAGGGAT yielded a switch fluorescence ratio of 1.01.
TCGGATCTCA showed a switch fluorescence ratio of 1.01.
Sequence TCGGATGTAG has a switch fluorescence ratio of 1.03.
With TCGGATTCAT the switch fluorescence ratio was 1.09.
TCGGCCCAAA gave a switch fluorescence ratio of 0.988.
In the case of TCGGCGTATA, the switch fluorescence ratio is reported as 1.02.
TCGGGAGAGG showed a switch fluorescence ratio of 0.954.
TCGGGATCAG was tested, and the switch fluorescence ratio was 0.974.
With TCGGGCATGG the switch fluorescence ratio was 1.03.
TCGGGCCGTA showed a switch fluorescence ratio of 0.919.
In the case of TCGGGCCTGG, the switch fluorescence ratio is reported as 1.01.
TCGGGCTGAA showed a switch fluorescence ratio of 0.978.

From the supplement of paper PMC10126150
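Further: ATP exposure 15 min at 22 °C before imaging.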
